Laboratory results taken from the supplement of paper PMC7826260.
The list shows a part of the results. One pool of 16,384 single-stranded DNAs met each Rep nickase domain in vitro (1 h at 37 °C, 3 µM enzyme); the outer parts of the 90-letter strands are left off. Numbers give uncut DNA relative to the enzyme-free pool, as log2; the lower, the more was cut; hits are not called. The scaling is to total reads; values above 0 arise when much of the pool is cut.

The sequences below were run on T1, Rep nickase domain of tomato golden mosaic virus (assay: uncleaved DNA left, log2 of reads against the no-enzyme library (log2 ratio); higher = less cleavage (more negative = more Rep cleavage of the k-mer); sequences stand for … in CTCGTCCG…ACCGGAGA).
T1 sequence (residues 1-124 of Rep, tag left off): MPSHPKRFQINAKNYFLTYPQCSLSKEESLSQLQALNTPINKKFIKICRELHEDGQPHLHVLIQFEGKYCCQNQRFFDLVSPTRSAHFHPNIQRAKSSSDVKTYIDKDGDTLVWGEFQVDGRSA
Method: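 A pool of 90-nt single-stranded DNAs with seven random bases just before the constant AC of the nick site (name = the seven bases) was cut by 3 µM recombinant His6-SUMO-tagged Rep nickase domain (300 nM DNA, 50 mM HEPES pH 8.0, 50 mM NaCl, 1 mM MnCl2, 1 h, 37 °C, three replicates). Uncut DNA was amplified and sequenced.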

Sequence | uncleaved DNA left (log2)
TGCGCTT | 0.106
GTCTACT | 0.0245
TTGAGAA | -0.0893
TCTTACC | -0.494
TCCGCAA | -0.251
ATGTCGC | -0.115
CCAAGCC | -0.134
AACCGCA | -0.124
TCGTGAG | 0.101
ACGTTCG | -0.0205
AGCTACA | 0.115
ATCACGT | -0.0417
TAAGGTT | -0.0647
TAAGCCT | -1.05
CATCAGT | -0.119
TGTGATA | 0.0637
AACAAAA | -0.0136
TAATAAA | -0.19
AAAACCA | 0.0125
CATTCCA | -0.101

Sequence | uncleaved DNA left (log2)
TTGAGAG | 0.0908
TGTCCAT | -0.00463
CTGGCGA | -0.0882
GCGCCGT | -0.108
CGGCCCA | -0.271
TCTGTGG | 0.0364
TCCCCTA | -0.143
TTACTGG | 0.139
CCTTGGT | -0.0556
ATAGAAA | 0.0508
TCCATTC | -0.127
GTCGTGT | 0.000296
ATATTCT | -0.254
AGGCTCT | 0.0296
CTAGCGG | 0.11
TCGCTCT | 0.129
TCCACAG | -0.0307
GGAATTT | -0.0845
TCCTCCA | -0.199
GCTATTG | -0.000406
